Some of the results follow. The full chains were built here from the parent and the listed change. Inactive controls read about 0.05.
B1: TEV protease; numbered along this chain (parent)
chain: MGESLFKGPRDYNPISSSICHLTNESDGHTTSLYGIGFGPFIITNKHLFRRNNGTLVVQSLHGVFKVKDTTTLQQHLVDGRDMIIIRMPKDFPPFPQKLKFREPQREERICLVTTNFQTKSMSSMVSDTSCTFPSGDGIFWKHWIQTKDGQCGSPLVSTRDGFIVGIHSASNFTNTNNYFTSVPKNFMELLTNQEAQQWVSGWRLNADSVLWGGHKVFMVKPEEPFQPVKEATQL

Variants of: B1
Test: raw area under fraction-flipped curve 0-4 h after induction (AUC4h, not background-subtracted), DNA-recorder readout of cleavage of the substrate (dimensionless); higher = more cleavage of the substrate by the protease variant
Details: temperature: 34 °C; time window: 0-4 h after rhamnose induction
Experimental: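 In vivo DNA recorder in E. coli TOP10(DE3) ΔrhaA at 34 °C. Each TEVp single-site mutant (parent TEVp 0) is paired with a single-site variant of the 7-mer TEVs (canonical ENLYFQ|S). The substrate sits between flexible linkers in a Bxb1-sfGFP-TEVs-SsrA fusion, so cleavage stabilises Bxb1 and speeds flipping of a recombination array, read by NGS. The value is the raw area under the fraction-flipped curve over 0-4 h after rhamnose induction (AUC4h), with ≥20 reads per time point. It is not background-subtracted; inactive controls average about 0.047.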
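Note: Bxb1 expression induced with 0.2% (w/v) L-rhamnose at OD600 near 0.5, cultures sampled hourly, flipped fraction per protease–substrate barcode pair counted by paired-end Illumina sequencing.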

Variant	area with substrate CNLYFQS	area with substrate DNLYFQS	area with substrate HNLYFQS	area with substrate INLYFQS	area with substrate LNLYFQS	area with substrate PNLYFQS	area with substrate SNLYFQS	area with substrate TNLYFQS	area with substrate YNLYFQS	area with substrate FNLYFQS	area with substrate GNLYFQS	area with substrate KNLYFQS	area with substrate MNLYFQS	area with substrate NNLYFQS	area with substrate QNLYFQS	area with substrate RNLYFQS	area with substrate VNLYFQS	area with substrate WNLYFQS
N52P	0.0604	0.0501	0.0627	0.0552	0.0578	0.0481	0.059	0.0634	0.0533									
N52V	0.0727	0.0269	0.0637		0.0686	0.0599	0.0655	0.0632	0.0655	0.0466	0.0547	0.068	0.054	0.0544	0.0692	0.0556	0.063	0.0594
N53C	0.0539	0.0787	0.0757		0.0799	0.0644	0.0652	0.0652	0.0515		0.0528	0.052			0.0626		0.0775	0.0616
N53M	0.0668	0.0537	0.056	0.0597	0.0592	0.077	0.0652	0.0148	0.0629	0.0622	0.0783		0.0635	0.0515			0.0638	0.0496
N53S	0.0647	0.0864	0.0688	0.0564	0.0632	0.0623	0.0681	0.0601	0.0757	0.0512		0.0624		0.0828		0.0804		0.0563
N53V	0.0668	0.0657	0.0595			0.0727	0.063	0.0539	0.0585					0.0835	0.0464			0.0542
G54Q	0.0599	0.0527	0.0514	0.0551	0.0572	0.0482	0.0494	0.062	0.0418	0.0579	0.0656	0.0484	0.0583	0.0114		0.0478	0.0545	0.0584
G54V	0.0601	0.0667	0.0541	0.0594	0.0612	0.0649	0.0483	0.065	0.0589	0.0523		0.0602		0.0576				0.0527
T55S	0.0741	0.0877	0.0697		0.0596		0.074	0.057	0.0655	0.0574		0.0638		0.0766			0.069	
Q59I	0.08	0.0768			0.0866	0.0385		0.0901			0.0868		0.0759	0.0447				0.0623
S60H	0.08	0.0595	0.0568	0.0616	0.0642	0.0676		0.0662		0.0671	0.0692	0.0831	0.0452	0.0706	0.0642	0.0556	0.0564	0.0677
S60K	0.0707	0.0631	0.0549	0.0671	0.0766	0.056	0.0707	0.0673	0.0482	0.0538	0.057		0.0638				0.0518	0.0412
L61H	0.0659	0.0864	0.0646		0.0543	0.0735	0.0655	0.0648	0.0753	0.0577	0.0683			0.0613	0.0731			0.0715

Source: the supplement of paper PMC12217912
